# Reference: the supplement of paper PMC4967469
# The IC50 comes from the fitted curve, where viability falls to half of the control; a fit beyond the top or the lowest dose is shown as a bound at that dose. AUC is the area under the same curve over the 256-fold range up to the top dose, as a fraction; the more sensitive the line, the further below 1. An inferred top dose is not printed in the source and was worked back from the curve model. For some of these results: Drugs with an entry number were screened twice under separate entries, and the two screens often disagree.
# Tests used:
# Test in all cases: Viability of human cancer cell lines after 72 h of drug (GDSC screen)
# [1] = compound: Cn1ncnc1[C@H]1c2n[nH]c(=O)c3cc(F)cc(c23)N[C@@H]1c1ccc(F)cc1 [BMN-673]; conditions: top dose 10 µM; top dose inferred
# Protocol: (§1)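 Human cancer cell lines in 384-well plates, medium with 10% serum, drug for 72 h over a 256-fold dose range (nine 2-fold or five 4-fold steps up to the top dose). Adherent lines were fixed and stained with the nucleic acid dye Syto60, suspension lines read with resazurin; signal relative to control wells, capped at 0 and 100%. One two-parameter sigmoid per drug and line, fitted in a mixed model over all curves with the slope shared within a line.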
# [2] = compound: NS(=O)(=O)OC[C@@H]1C[C@@H](n2ccc3c(N[C@H]4CCc5ccccc54)ncnc32)C[C@@H]1O [MLN4924]; conditions: top dose 1 µM; top dose inferred
# Protocol: as §1
# [3] = compound: Cc1cc([C@@H](C)Nc2ccccc2C(=O)O)c2nc(N3CCOCC3)cc(=O)n2c1 [AZD6482]
# Protocol: as §1
# [4] = top dose 5 µM, screen: GDSC drug entry 1066, top dose inferred
# [5] = top dose 5.12 µM, screen: GDSC drug entry 156
Cell Line,AUC [1],IC50 [1] [nM],AUC [2],IC50 [2] [nM],"AUC [3, 4]","IC50 [3, 4] [nM]","AUC [3, 5]","IC50 [3, 5] [nM]"
"HDLM-2 (Hodgkin lymphoma, suspension)",0.845,7050,0.932,> 1000,0.985,> 5000,0.965,> 5120
"HDQ-P1 (breast, adherent)",0.976,> 10000,0.947,> 1000,0.892,> 5000,0.876,> 5120
"HEL (acute myeloid leukaemia, semi-adherent)",0.549,828,0.68,180,0.988,> 5000,0.963,> 5120
"HH (T-cell leukaemia, suspension)",0.876,> 10000,0.974,> 1000,0.763,2400,0.529,394
"HLE (liver, adherent)",0.967,> 10000,0.724,258,0.978,> 5000,0.919,> 5120
"HMV-II (melanoma, adherent)",0.922,> 10000,0.839,913,0.955,> 5000,0.94,> 5120
"HN (head and neck, adherent)",0.687,2000,0.796,435,0.907,> 5000,0.989,> 5120
"HO-1-N-1 (head and neck, adherent)",0.688,2000,0.711,233,0.941,> 5000,0.963,> 5120
"HO-1-u-1 (head and neck, adherent)",0.875,9090,0.802,468,0.959,> 5000,0.97,> 5120
"HOP-62 (lung adenocarcinoma, adherent)",0.544,825,0.646,158,0.953,> 5000,0.892,> 5120
"HOP-92 (large cell lung carcinoma, adherent)",0.844,8920,0.937,> 1000,0.809,3120,0.852,4950
"HOS (osteosarcoma, adherent)",0.626,1300,0.69,192,0.888,4040,0.94,> 5120
"HPAF-II (pancreas, adherent)",0.905,> 10000,0.929,> 1000,0.894,> 5000,0.946,> 5120
"HSC-3 (head and neck, adherent)",0.738,2650,0.792,382,0.947,> 5000,0.99,> 5120
"HT (B-cell lymphoma, suspension)",0.989,> 10000,0.967,> 1000,0.828,2740,0.823,2700
"HT-3 (cervix, adherent)",0.428,396,0.666,183,0.951,> 5000,0.983,> 5120

Cell Line,AUC [1],IC50 [1] [nM],AUC [2],IC50 [2] [nM],"AUC [3, 4]","IC50 [3, 4] [nM]","AUC [3, 5]","IC50 [3, 5] [nM]"
"HT-144 (melanoma, adherent)",0.872,> 10000,0.937,> 1000,0.941,> 5000,0.87,> 5120
"HT-1376 (bladder, adherent)",0.975,> 10000,0.983,> 1000,–,–,0.959,> 5120
"HTC-C3 (thyroid, adherent)",0.909,> 10000,0.94,> 1000,0.777,2250,0.853,4790
"Hep 3B2_1-7 (liver, adherent)",0.949,> 10000,0.887,> 1000,0.902,> 5000,0.958,> 5120
"Hs633T (fibrosarcoma, adherent)",0.666,1640,0.746,269,0.865,3140,0.918,> 5120
"Hs746T (stomach, adherent)",0.863,> 10000,0.957,> 1000,0.932,> 5000,0.937,> 5120
"HuCCT1 (biliary tract, adherent)",0.849,8840,0.733,316,0.533,389,0.797,2730
"HuO-3N1 (osteosarcoma, adherent)",0.889,> 10000,0.966,> 1000,0.844,> 5000,0.792,3190
"IGR-37 (melanoma, adherent)",0.789,4000,0.85,658,0.83,2770,0.792,2100
"IGROV-1 (ovary, adherent)",0.764,5410,0.946,> 1000,0.769,2840,–,–
"IM-9 (myeloma, suspension)",0.781,3560,0.734,259,0.988,> 5000,0.991,> 5120
"IMR-5 (neuroblastoma, adherent)",0.487,579,0.945,> 1000,0.988,> 5000,0.992,> 5120
"IPC-298 (melanoma, adherent)",0.921,> 10000,0.915,> 1000,0.61,623,0.94,> 5120
"IST-SL1 (small cell lung carcinoma, semi-adherent)",0.978,> 10000,0.902,> 1000,0.987,> 5000,0.956,> 5120
"J82 (bladder, adherent)",0.92,> 10000,0.944,> 1000,0.967,> 5000,0.628,720
